In all, about 44,000 compounds went through this assay and about 340 (0.77%) were called active. The shares of active, inactive and inconclusive entries below differ from those in the screen. The call rests on the fitted dose curve; in most records, active means well fitted inhibition curve with a large enough effect; inconclusive means small, poorly fitted or top-dose-only effect; inactive means flat fitted curve, though single readings scatter. Potencies of inconclusive entries are left out as doubtful fits.
Assay: Acumen qHTS Assay for Inhibitors of the mTORC1 Signaling Pathway in MEF (Tsc2-/-, p53-/-) Cells: Sytravon; further: nearly all actives have a fitted effect of over 50% in size
Conditions: phospho-rpS6 immunofluorescence/PI, 24 h; series mostly up to 38.3 µM
How it was run: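 Tsc2-/-, p53-/- MEFs (empty-vector stable line) in DMEM + 10% FBS were treated with compounds 24 h at 37 degree Celsius, fixed, and immunostained for phospho-rpS6 (Alexa-488) with propidium iodide counterstain. Laser-scanning cytometry gave % positive cells, normalized against 7.5 nM rapamycin and DMSO.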
Potency means the concentration at half of the fitted maximal effect; tags describe the fitted curve by direction and shape.

Question: Which Potency does the source give for `CCOC(=O)c1c(-c2ccccc2)oc2ccc(NS(=O)(=O)c3ccc(OC)cc3)cc12` here?
Answer: inconclusive [falling, full curve, poor fit]

Question: For `CCCS(=O)(=O)c1ncc(Cl)c(C(=O)N2CCN(c3ccc(OC)cc3)CC2)n1`, which Potency is on record?
Answer: inconclusive [falling, full curve, poor fit]

Question: For `COc1ccc(-c2cc(C(=O)Oc3cccc(C)c3)c3ccccc3n2)cc1`, which Potency is on record?
Answer: inconclusive [falling, single point]

Question: Which Potency does the source give for `O=C(CCCCn1c(=O)c2ccccc2n(Cc2ccc(Cl)cc2)c1=O)NCc1ccccc1Cl` here?
Answer: inconclusive [falling, single point]

Question: Which Potency does the source give for `Cc1cc(OC(C)C(=O)N(Cc2ccco2)Cc2ccccc2F)cc(C)c1Cl` (stereo unspecified) here?
Answer: inconclusive [falling, partial curve, poor fit]

Question: For `Cc1ccc(NC(=O)CSc2nc3ccccc3c3nc(CCn4cncc4C)nn23)cc1F`, which Potency is on record?
Answer: inconclusive [falling, partial curve, poor fit]

Question: For `Cc1ccc(C)c(N2CCN(CCCNC(=O)C3COc4ccccc4C3)CC2)c1` (stereo unspecified), which Potency is on record?
Answer: active: 11.7 µM

Question: With `COc1ccc(C(=O)NCCn2cc(SCC(=O)Nc3ccc4c(c3)OCCO4)c3ccccc32)cc1` as the compound, how does the Potency read?
Answer: inconclusive [falling, full curve]

Question: With `CCOc1ccccc1NC(=O)c1nc(S(=O)(=O)Cc2cccc(C)c2)ncc1Cl` as the compound, how does the Potency read?
Answer: inconclusive [falling, single point]

Question: For `Cc1cccc2c(=O)cc(CSc3ccccc3NC(=O)C(C)C)[nH]c12`, which Potency is on record?
Answer: inconclusive [falling, single point]

Question: With `Cc1ccc(Sc2ccc(N3CCCC(C(=O)Nc4ccc(F)c(Cl)c4)C3)nn2)cc1` (stereo unspecified) as the compound, how does the Potency read?
Answer: inactive

Question: For `COc1ccc(NC(=O)c2c(NCc3ccc(C)o3)sc3c2CCCCC3)c(OC)c1`, which Potency is on record?
Answer: inconclusive [falling, single point]

Question: With `COc1ccc(NC(=O)CC2Oc3ccc(C)cc3NC2=O)cc1Cl` (stereo unspecified) as the compound, how does the Potency read?
Answer: inconclusive [falling, single point]

Question: Which Potency does the source give for `Cc1c(Cl)cccc1-n1ncc(C(=O)NCCN2CCN(C)CC2)c1C1CCN(C(=O)OC(C)(C)C)CC1` here?
Answer: inactive

Question: With `O=C(Nc1ccc(Cl)cc1)c1cnn2c1NC(c1ccccc1)=CC2c1ccccc1` (stereo unspecified) as the compound, how does the Potency read?
Answer: inactive

Question: Which Potency does the source give for `CCN(CC)c1cc(C)c2cc(NC(=O)c3ccc(OC)c(OC)c3)ccc2n1` here?
Answer: inconclusive [falling, single point]

Question: Which Potency does the source give for `Cc1cc(F)ccc1NC(=O)c1csc2c1CCC(C)C2` (stereo unspecified) here?
Answer: inactive

Question: With `Cc1ccc(NC(=O)CN2C(=O)CCc3cc(S(=O)(=O)N4CCOCC4)ccc32)cc1N(C)C` as the compound, how does the Potency read?
Answer: inactive

Question: With `N#Cc1ccc(-c2cccs2)nc1SCc1c(F)cccc1Cl` as the compound, how does the Potency read?
Answer: inconclusive [falling, partial curve, poor fit]

Question: For `CCc1ccc(CNC(=O)c2ccc3nc(SCc4ccc(F)cc4)n(C)c3c2)cc1`, which Potency is on record?
Answer: inactive

Question: For `CC1=C(C(=O)Nc2ccccc2)C(c2cccnc2)n2nc(SCc3ccccc3F)nc2N1` (stereo unspecified), which Potency is on record?
Answer: inconclusive [falling, partial curve, poor fit]

Question: With `Cc1nc(C)c(-c2ccc(SCC(=O)Nc3ccc(Cl)c(Cl)c3)nn2)s1` as the compound, how does the Potency read?
Answer: inactive

Question: With `COc1cc(OC)c(-c2cc(C(=O)NCc3ccc(F)cc3)c3c(-c4ccccc4)[nH]nc3n2)cc1OC` as the compound, how does the Potency read?
Answer: inconclusive [falling, single point]

Question: With `Cc1ccc(Sc2c(C)nn(C(=O)c3ccc(Cl)cc3)c2C)cc1` as the compound, how does the Potency read?
Answer: inactive

Question: For `COc1ccc(NCc2cc3cc4c(cc3n(CC(=O)Nc3cc(C)ccc3C)c2=O)OCCO4)cc1`, which Potency is on record?
Answer: inconclusive [falling, single point]

Question: Which Potency does the source give for `Cn1c(=O)c2cc(C(=O)NCCCN3CCN(c4ccccc4F)CC3)sc2c2ccccc21` here?
Answer: inactive

Question: With `CCN(CC)c1cc2c(cc1F)c(=O)c(S(=O)(=O)c1cccc(C)c1)cn2C` as the compound, how does the Potency read?
Answer: inconclusive [falling, partial curve, poor fit]

Question: With `COc1ccc(Cn2c(C(=O)O)c(CNCc3cccc(OC)c3)c3ccc(C)cc32)cc1` as the compound, how does the Potency read?
Answer: inconclusive [falling, single point]

Question: Which Potency does the source give for `CCOC(=O)c1[nH]c(C)c(CCC(=O)Nc2c(C)cc(C)cc2C)c1C` here?
Answer: inconclusive [falling, partial curve, poor fit]

Question: For `CCc1nnc(NC(=O)c2nc(S(=O)(=O)Cc3cccc(C)c3)ncc2Cl)s1`, which Potency is on record?
Answer: active: 11.7 µM

Question: With `COc1ccc(NC(=O)Cn2c(=O)n(CCCC(=O)NCc3ccccc3OC)c(=O)c3ccccc32)cc1Cl` as the compound, how does the Potency read?
Answer: inconclusive [falling, partial curve, poor fit]

Question: With `Cc1ccc(Nc2ncnc3c2cnn3-c2ccccc2)c(C)c1` as the compound, how does the Potency read?
Answer: inactive

Question: With `O=c1[nH]c2ccc(NCc3ccc(-c4cccc(Cl)c4)o3)cc2[nH]1` as the compound, how does the Potency read?
Answer: inconclusive [falling, partial curve, poor fit]

Question: For `CCc1ccccc1NC(=O)C(CC)Sc1ncnc2c1sc1ccccc12` (stereo unspecified), which Potency is on record?
Answer: inconclusive [activator, partial curve, poor fit]

Question: For `Cc1cc(C)c2c(CC(=O)Nc3ccc(S(=O)(=O)N4CCCC(C)C4)cc3)coc2c1` (stereo unspecified), which Potency is on record?
Answer: inconclusive [falling, partial curve, poor fit]

Question: For `Cn1c(CNC(=O)CSc2n[nH]c(-c3ccccc3Cl)n2)nc2ccccc21`, which Potency is on record?
Answer: inconclusive [falling, partial curve, poor fit]

Question: Which Potency does the source give for `COc1ccc(Cl)cc1NS(=O)(=O)c1cc(-c2cc(C)no2)ccc1C` here?
Answer: inactive

Question: With `COc1ccc(OC)c(C2CC(=O)c3c([nH]c(C(=O)OCC4CCCCC4)c3C)C2)c1` (stereo unspecified) as the compound, how does the Potency read?
Answer: inconclusive [falling, full curve, poor fit]

Question: With `Cc1cccc(CCn2c(=O)c3ccccc3n(Cc3cccc(F)c3)c2=O)c1` as the compound, how does the Potency read?
Answer: inconclusive [falling, full curve, poor fit]

Question: For `COc1ccc(C2c3c(-c4ccccc4O)n[nH]c3C(=O)N2Cc2ccco2)cc1` (stereo unspecified), which Potency is on record?
Answer: inactive

Question: With `COc1ccc(C(=O)Nc2cc(C(F)(F)F)ccc2N2CCN(c3ccccc3)CC2)cc1OC` as the compound, how does the Potency read?
Answer: inactive

Source: PubChem BioAssay AID493208 (National Center for Advancing Translational Sciences (NCATS), 2011)
